According to the supplement of paper PMC9446081:
The campaign covered roughly 39,000 compounds. About 220 (0.56%) showed activity. The list shows a part of the results.

Tested on: Escherichia coli K-12 BW25113
Test: relative growth (OD600 normalised to plate interquartile mean) (fraction); higher = less growth inhibition, active = 0.2 or less
Details: 50 µM; LB; incubation time: overnight (16-24 h)
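Also: static incubation at 37 °C against the wild-type strain, values averaged over two biological replicates.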

Row | SMILES | relative growth
1 | Cc1noc(C)c1S(=O)(=O)Nc1ccc2c(c1)CC(=O)N([C@H](C)CO)C[C@H](C)[C@H](CN(C)CC1CC1)O2 | inactive: 0.979
2 | C[C@@H]1CN([C@H](C)CO)C(=O)c2cccc(NS(C)(=O)=O)c2O[C@@H]1CN(C)S(=O)(=O)c1cn(C)cn1 | inactive: 0.961
3 | C[Si](C)(C)O[Si](C)(C)O[Si](C)(C)C | inactive: 0.894
4 | C[C@@H]1CCCCO[C@H](CN(C)Cc2ccc(Cl)c(Cl)c2)[C@H](C)CN([C@H](C)CO)C(=O)c2cc(NC(=O)CCC(F)(F)F)ccc2O1 | inactive: 1.02
5 | Cc1noc(C)c1S(=O)(=O)N(C)C[C@H]1Oc2ccc(NC(=O)C3CCCCC3)cc2CC(=O)N([C@@H](C)CO)C[C@@H]1C | inactive: 1
6 | COc1ccc(NC(=O)Nc2cccc3c2O[C@H](CN(C)CC2CCCCC2)[C@H](C)CN([C@H](C)CO)C3=O)cc1 | inactive: 0.994
7 | C[C@@H]1CCCCO[C@H](CN(C)CC2CCCCC2)[C@@H](C)CN([C@H](C)CO)C(=O)c2cc(NC(=O)Nc3cccc4ccccc34)ccc2O1 | inactive: 1
8 | C[C@H](CO)N1C[C@H](C)[C@@H](CN(C)S(=O)(=O)c2ccc(C#N)cc2)OCc2cnnn2CCCC1=O | inactive: 1.01
9 | C[C@@H]1CN([C@@H](C)CO)C(=O)c2cccc(NS(=O)(=O)c3ccc(F)cc3)c2O[C@@H]1CN(C)Cc1ccc(-c2ccccc2)cc1 | inactive: 0.978
10 | CCCN(C)C[C@@H]1OCCCC[C@H](C)Oc2ccc(NC(=O)Nc3ccc(F)cc3)cc2C(=O)N([C@@H](C)CO)C[C@@H]1C | inactive: 0.94
11 | C[C@H](CO)N1C[C@H](C)[C@@H](CN(C)S(=O)(=O)c2ccccc2)Oc2ccc(NC(=O)Cc3ccccc3)cc2CC1=O | inactive: 1.01
12 | C[C@@H]1CCCCO[C@H](CN(C)S(=O)(=O)c2ccc(Cl)cc2)[C@H](C)CN([C@@H](C)CO)C(=O)c2cc(NC(=O)c3ccncc3)ccc2O1 | inactive: 0.997
13 | C[C@H]1CCCCO[C@H](CN(C)Cc2ccc(C(F)(F)F)cc2)[C@@H](C)CN([C@@H](C)CO)C(=O)c2cc(NS(=O)(=O)c3ccccc3)ccc2O1 | inactive: 0.999
14 | C[C@H](CO)N1C[C@H](C)[C@@H](CN(C)Cc2ccc(C(=O)O)cc2)Oc2c(NC(=O)c3ccc(-c4nccs4)cc3)cccc2C1=O | inactive: 0.985
15 | C[C@@H]1CN([C@@H](C)CO)C(=O)c2cccc(NS(=O)(=O)c3cn(C)cn3)c2O[C@H]1CN(C)CC1CCCCC1 | inactive: 0.985
16 | Cc1cc(C(=O)Nc2cccc3c2O[C@@H](CN(C)Cc2ccc(C(=O)O)cc2)[C@H](C)CN([C@@H](C)CO)C3=O)n(C)n1 | inactive: 1.02
17 | C[C@H]1CCCCO[C@H](CN(C)Cc2ccc3c(c2)OCO3)[C@@H](C)CN([C@@H](C)CO)C(=O)c2cc(NS(=O)(=O)c3ccc(F)cc3)ccc2O1 | inactive: 0.989
18 | CN(CCOc1ccc(CC2SC(=O)NC2=O)cc1)c1ccccn1.O=C(O)C=CC(=O)O (centres undefined) | inactive: 0.921
19 | COCC#Cc1ccc([C@H]2[C@@H](CO)N3C(=O)CN(C(=O)c4ccncc4)C[C@H]23)cc1 | inactive: 1.01
20 | C[C@H]1CN([C@@H](C)CO)C(=O)c2cccc(NS(=O)(=O)c3ccc(F)cc3)c2O[C@H]1CN(C)S(=O)(=O)c1cn(C)cn1 | inactive: 0.987

Row | SMILES | relative growth
21 | O=C1CCC(=O)N1CNc1ccccn1 | inactive: 0.999
22 | C[C@H]1CN([C@@H](C)CO)C(=O)Cc2cc(NC(=O)CCCN(C)C)ccc2O[C@@H]1CN(C)C(=O)Nc1ccc2c(c1)OCO2 | inactive: 0.981
23 | CC[C@@H]1CN(C(=O)OC)N1 | inactive: 1.02
24 | O=C(C[C@H]1C[C@H]2c3cc(NS(=O)(=O)c4ccc(F)cc4)ccc3O[C@H]2[C@@H](CO)O1)NCc1ccccc1F | inactive: 0.978
25 | CCCC#Cc1ccc2c(c1)O[C@H](CN(C)S(=O)(=O)c1cccc(F)c1)[C@H](C)CN([C@@H](C)CO)S2(=O)=O | inactive: 1.01
26 | COc1ccc(S(=O)(=O)N(C)C[C@H]2Oc3ccc(NS(=O)(=O)c4ccc(F)cc4)cc3CC(=O)N([C@H](C)CO)C[C@H]2C)cc1 | inactive: 1
27 | NCC[C@@H]1CC[C@@H](NC(=O)C2CCC2)[C@@H](CO)O1 | inactive: 0.969
28 | Cc1ccc(S(=O)(=O)N(C)C[C@H]2OCCCC[C@@H](C)Oc3ccc(NS(=O)(=O)c4ccc(Cl)cc4)cc3C(=O)N([C@@H](C)CO)C[C@H]2C)cc1 | inactive: 1.02
29 | CC(=O)OC[C@H]1O[C@H](n2ccc(=O)[nH]c2=O)[C@@H](OC(C)=O)[C@@H]1OC(C)=O | inactive: 1.03
30 | Cn1cnc(S(=O)(=O)N2C[C@@H](O)COC[C@@H]3O[C@@H](CC(=O)N4CCN(c5ccccc5)CC4)CC[C@H]32)c1 | inactive: 0.861
31 | C[C@H]1CN([C@@H](C)CO)C(=O)CCCn2cc(nn2)CO[C@@H]1CN(C)S(=O)(=O)c1ccccc1C#N | inactive: 0.986
32 | CN1C(=O)c2cc(NC(=O)c3ccc(F)cc3)ccc2OC[C@@H]2O[C@@H](CC(=O)N3CCOCC3)CC[C@H]21 | inactive: 1.06
33 | Cc1ccc(S(=O)(=O)Nc2ccc3c(c2)C(=O)N([C@H](C)CO)C[C@@H](C)[C@@H](CN(C)Cc2ccc(Cl)c(Cl)c2)O3)cc1 | inactive: 0.99
34 | COc1ccc2c3c([nH]c2c1)[C@H](CO)N(CC1CCCC1)C[C@]13CCN(CC1)C(=O)Nc1cccc(c1)F | inactive: 1
35 | C=CCC[C@@H](Cc1ccc(F)cc1)C(=O)O[C@H](CNC(=O)[C@H](CC=C)CC(=O)N(CCO)Cc1ccccc1)c1ccccc1 | inactive: 1.08
36 | C[C@@H]1CCCCO[C@H](CN(C)C(=O)Nc2ccccc2)[C@H](C)CN([C@H](C)CO)C(=O)c2cc(NC(=O)C3CCCCC3)ccc2O1 | inactive: 1.03
37 | COc1ccc(NC(=O)N(C)C[C@H]2OCCCC[C@@H](C)Oc3ccc(NS(=O)(=O)c4ccc(Cl)cc4)cc3C(=O)N([C@H](C)CO)C[C@@H]2C)cc1 | inactive: 1.01
38 | C[C@@H]1CCCCO[C@H](CN(C)C(=O)Nc2ccc3c(c2)OCO3)[C@H](C)CN([C@@H](C)CO)C(=O)c2cc(NC(=O)C3CCCCC3)ccc2O1 | inactive: 1.01
39 | C[C@H]1CCCCO[C@H](CN(C)C(=O)CCCN(C)C)[C@@H](C)CN([C@@H](C)CO)C(=O)c2cc(NC(=O)Nc3ccc(C(F)(F)F)cc3)ccc2O1 | inactive: 0.954
40 | C[C@H](CCOc1cccc(CC(=O)O)c1)N(Cc1cccc(C(F)(F)F)c1Cl)CC(c1ccccc1)c1ccccc1 | inactive: 0.954

Row | SMILES | relative growth
41 | C[C@@H]1CCCCO[C@H](CN(C)C(=O)Nc2ccc(F)cc2)[C@H](C)CN([C@@H](C)CO)C(=O)c2cc(NS(=O)(=O)c3ccc(Cl)cc3)ccc2O1 | inactive: 1.02
42 | CCNC(=O)C[C@H]1CC[C@@H](NC(=O)C2CCOCC2)[C@@H](CO)O1 | inactive: 0.99
43 | CCN1C[C@H](C(=O)N2CCN(c3ncccc3C(N)=O)CC2)CC1=O | inactive: 0.976
44 | Nc1nnnn1/N=C\C=C\c1ccccc1 | inactive: 1.01
45 | C[C@H](CO)N1C[C@H](C)[C@H](CN(C)Cc2cccc(C(F)(F)F)c2)Oc2ncc(-c3cc4ccccc4o3)cc2C1=O | inactive: 0.984
46 | C[C@@H]1CCCCO[C@H](CN(C)C(=O)Nc2cccc3ccccc23)[C@@H](C)CN([C@@H](C)CO)C(=O)c2cc(NC(=O)Nc3ccc(C(F)(F)F)cc3)ccc2O1 | inactive: 1.04
47 | CCCc1cc(C(N)=S)ccn1 | inactive: 1.09
48 | C[C@@H]1CN([C@@H](C)CO)C(=O)Cc2cc(NC(=O)CCC(F)(F)F)ccc2O[C@@H]1CN(C)Cc1ccc(Cl)c(Cl)c1 | inactive: 1
49 | Cc1noc(C)c1S(=O)(=O)N(C)C[C@H]1OCCCC[C@H](C)Oc2ccc(NS(=O)(=O)c3cn(C)cn3)cc2C(=O)N([C@@H](C)CO)C[C@@H]1C | inactive: 1
50 | COc1ccc(NC(=O)N(C)C[C@H]2Oc3ccc(NC(=O)Cn4cnnn4)cc3CC(=O)N([C@H](C)CO)C[C@H]2C)cc1 | inactive: 0.985
51 | C[C@H](O)C#Cc1cnc2c(c1)C(=O)N([C@H](C)CO)C[C@H](C)[C@@H](CN(C)C(=O)Nc1ccc(C(F)(F)F)cc1)O2 | inactive: 0.972
52 | COc1ccc2c3c(n(c2c1)C)[C@@H](CO)N(Cc1cc(cc(c1)OC)OC)C[C@]13CN(C1)C(=O)NC(C)C | inactive: 1.02
53 | C[C@H](CO)N1C[C@H](C)[C@@H](CN(C)S(=O)(=O)c2cn(C)cn2)OCCCC[C@H](C)Oc2ccc(NC(=O)c3ccncc3)cc2C1=O | inactive: 0.994
54 | Cc1cc(C(=O)Nc2cccc3c2O[C@H](CN(C)Cc2ccccc2)[C@H](C)CN([C@H](C)CO)C3=O)n(C)n1 | inactive: 0.999
55 | COc1ccc(CCN(C)CCCOc2ccc(S(=O)(=O)c3c(C(C)C)cn4ccccc34)cc2)cc1OC | inactive: 1.05
56 | COc1ccc(CN(C)C[C@H]2OCCCC[C@@H](C)Oc3ccc(NC(=O)Nc4ccc(C(F)(F)F)cc4)cc3C(=O)N([C@H](C)CO)C[C@@H]2C)cc1 | inactive: 1.02
57 | C[C@@H]1CCCCO[C@@H](CN(C)C(=O)Nc2cccc3ccccc23)[C@@H](C)CN([C@H](C)CO)C(=O)c2cc(NC(=O)Nc3cccc4ccccc34)ccc2O1 | inactive: 1.01
58 | C[C@@H]1CN([C@H](C)CO)C(=O)c2cc(NC(=O)Cn3cnnn3)ccc2O[C@@H]1CN(C)C(=O)NC1CCCCC1 | inactive: 1.01
59 | COCC#Cc1cnc2c(c1)C(=O)N([C@H](C)CO)C[C@@H](C)[C@@H](CN(C)S(=O)(=O)c1ccccc1)O2 | inactive: 0.99
